Measurements reported in ChEMBL document CHEMBL4888484, “Replenishing the malaria drug discovery pipeline: Screening and hit evaluation of the MMV Hit Generation Library 1 (HGL1) against asexual blood stage Plasmodium falciparum ,using a nano luciferase reporter read-out” (2022).
About 540 (0.36%) of roughly 150,000 compounds showed an effect of 50% or more. Some of the results follow.

The compounds below were run on Plasmodium falciparum (assay: Primary screen in NF54 nanoGlo assay, in single point, at 2uM, 72h; a lower Z score goes with more inhibition). Details: timepoint 72 hour.
Assay type: functional, Erythrocyte

| Compound | % Inhibition [%] | Z score |
| --- | --- | --- |
| O=C1C[C@@H](C2CCCCC2)c2cnn(Cc3cccs3)c2N1 | -15 | 1.94 |
| c1c(CN2CCCCC2)n[nH]c1C1CCCCC1 | -3 | 0.35 |
| CC(=O)c1c[nH]c(C(=O)Nc2nc(C(C)C)cs2)c1 | -8 | 0.65 |
| CC(C)Oc1cc(CNC(=O)[C@@H](c2ccccc2)N2CCC(O)CC2)ccn1 | -7 | 1.13 |
| CC(C)(C)n1nnnc1CN1CCC[C@H]1c1nc(-c2ccccc2)n[nH]1 | -2 | 0.25 |
| CCc1cc(CN2CCOc3c(O)cc(-c4nc(C)cnc4C)cc3C2)[nH]n1 | 0 | 0.02 |
| Cc1cccc(CN2CCCN(CCCNC(=O)c3nc(-c4ccncn4)no3)CC2)c1 | 1 | -0.12 |
| CCN(CCC(=O)N(C)Cc1ccccc1)C(=O)c1cc2n(n1)CCCN(Cc1ccccc1C)C2=O | -5 | 0.55 |
| COC(=O)[C@@H]1CCc2cnccc2N1C(=O)c1cc(Cl)n(C)n1 | -6 | 1.31 |
| CC1CCC(NC(=O)c2ccc3c(c2)CCCC3)CC1 (stereo not drawn) | -17 | 1.94 |
| Cc1csc([C@@H]2CN(c3ncnc(-c4ccccc4)n3)CCO2)n1 | -12 | 1.42 |
| CC(C)[C@H](C)NCc1ccnc(N(C)C)n1 | -7 | 0.84 |
| Cc1cccc(C(=O)N2CC(CN3CCCCC3)C(c3cccc(C(F)(F)F)c3)C2)c1 (stereo not drawn) | -2 | 0.3 |
| O=C(CNC(=O)[C@H]1CC[C@H](CNS(=O)(=O)c2ccccc2)CC1)N1CCN(c2ccccc2)CC1 | 37 | -1.24 |
| C[C@H]1C(=O)N(c2ccccc2-c2ccccc2)CCN1C(=O)COc1ccc(Cl)cc1 | -14 | 2.43 |
| C=CCn1c(=O)c(CNCCc2ccccn2)cc2cc(C)ccc21 | 18 | -2.29 |
| CN1CCO[C@@H](CNC(=O)N(Cc2ccoc2)C2CC2)C1 | -4 | 0.71 |
| C=CCn1ncc(-c2nc3c([nH]2)c(-c2cccnc2)nn3C)c1C | -14 | 2.79 |
| CO[C@@H](C)CS(=O)(=O)Nc1cnn(C)c1C | -9 | 0.76 |
| CCc1noc([C@H](C)NC(=O)c2cc(Cl)cn2C)n1 | 7 | -1.35 |
| O=C(O)C1CCCCC1C(=O)N1CCC(Cc2ccccc2)CC1 (stereo not drawn) | 0 | 0 |

| Compound | % Inhibition [%] | Z score |
| --- | --- | --- |
| O=C(NCc1ccco1)[C@H]1CCCN(c2nc3ccccc3n(Cc3ccccc3)c2=O)C1 | 45 | -6.52 |
| C[C@@H](Cc1c(Cl)cccc1Cl)NC(=O)N1CCNC(=O)CC1 | -6 | 0.56 |
| C[C@H](NCc1csc(COc2ccc(Cl)cc2)n1)c1ccncc1 | -4 | 0.54 |
| CCN(C)c1ccnc(N(C)Cc2cccnc2)n1 | -2 | 0.25 |
| CCc1[nH]nc(-c2ccc(F)c(F)c2)c1NC(=O)Cc1ccc(OC)cc1 | -4 | 0.46 |
| C[C@H]1CCc2onc(C(=O)N3CCN(c4ccccn4)CC3)c2C1 | -19 | 3.26 |
| CC(C)(C)c1cc(NC(=O)CS(=O)(=O)c2ccccc2F)on1 | -3 | 0.42 |
| C[C@@H](C(=O)N1CC(OCc2ccccc2F)C1)N1CCN(C)CC1 | -8 | 1.21 |
| CC(C)CN(Cc1cccc(Cl)c1)C(=O)c1cc(C(=O)O)nn1C | -3 | 0.41 |
| CC(C)[C@@](C)(C#N)NC(=O)Cn1cccc(C#N)c1=O | -7 | 1.19 |
| CN(C)C(=O)CN1CCC2(CC1)CN(CCOc1ccccc1)C(=O)O2 | 3 | -0.5 |
| O=C(Nc1cccc(Br)c1)c1ccc(Oc2nccnc2N2CCCCC2)cc1 | -3 | 0.27 |
| COC1CCCC(C(=O)N2CCN(Cc3c(-c4ccc(Cl)cc4)nc4ccc(-c5cccc(C)c5)cn34)CC2)C1 (stereo not drawn) | -12 | 1.81 |
| COc1cccc(-c2cc3c(N4CCC[C@H](C(=O)NCc5cccc(Cl)c5)C4)nccn3n2)c1 | -1 | 0.18 |
| CN(C)C[C@@H]1CN(C)C[C@H]1NS(=O)(=O)c1ccc(Cl)cc1 | -12 | 1.86 |
| CC(C)NC(=O)CCN1CCC2(CC1)C[C@@H](c1ccccc1)C(=O)N(C)C2 | -24 | 2.19 |
| O=C1NCCC[C@@H]1Nc1ncccc1Br | -18 | 2.28 |
| CNC(=O)[C@H]1CC[C@H](CNc2nccnc2N(C)C)CC1 | -7 | 1.1 |
| COc1ccccc1N(C)CC(=O)N[C@H]1CCS(=O)(=O)C1 | 14 | -2.63 |
| CC(C)c1cc(C(=O)N2CCC3(CC2)CC(=O)N(C[C@H]2CCCO2)C3)no1 | -3 | 0.45 |
| CN(C)Cc1csc(-c2nccn2CCn2cnnc2)c1 | -12 | 1.56 |

| Compound | % Inhibition [%] | Z score |
| --- | --- | --- |
| CO[C@@H](C(=O)NC1(c2c(F)cccc2F)COC1)c1ccc(O)cc1 | -4 | 0.68 |
| CC1CCN(C(=O)CNc2nn(C)cc2C(N)=O)CC1 | -11 | 1.58 |
| CC(C)Oc1ccccc1C(=O)Nc1ccc2c(c1)C(=O)NC2 | -4 | 0.6 |
| Cc1oc(-c2ccc(Cl)cc2)cc1C(=O)NCCc1ccccc1 | -8 | 1.01 |
| Cc1c(Br)c2ccccc2n1CC(=O)NCc1ccc(N2CCN(C)CC2)nc1 | 6 | -0.74 |
| CCc1nc(N2CC3(C2)CC(F)(F)C3)c2ccsc2n1 | -2 | 0.22 |
| CCOC(=O)c1ccc(N2C(=O)NC3(CCCCC3)C2=O)cc1 | -9 | 1.08 |
| CN1CC(=O)N2CCN(C(=O)Cn3ccc4ccccc43)C[C@H]2C1=O | -10 | 1.42 |
| COc1cc(C(=O)N2CC[C@]3(CC(=O)NC3=O)C2)ccn1 | -8 | 1.37 |
| COc1ccccc1CC(=O)N[C@H]1CCCNC1=O | -11 | 1.69 |
| c1coc(CN2CCN(c3nccn4cnnc34)CC2)c1 | -12 | 2.04 |
| CC(=O)N1CCOC[C@H]1C(=O)Nc1ccc2c(ccn2CC(C)C)c1 | -10 | 1.29 |
| COCC1(c2noc([C@@H]3CCCO3)n2)CCCCC1 | 1 | -0.09 |
| O=C(NCCc1noc(C(F)(F)F)n1)[C@@H]1CCC[C@H](O)C1 | -10 | 1.69 |
| CCCN(CCO)C(=O)Nc1ccc(Cl)cc1F | -14 | 1.8 |
| Cc1ccc2nc(N3CCC[C@H](O)C3)c(CN(C)CCc3cn[nH]c3)cc2c1 | -9 | 1.17 |
| CCOCc1ccc(NC(=O)N2CCC3CCC(C2)N3C(C)C)cc1 (stereo not drawn) | 8 | -1.16 |
| Cc1c(Cl)ccc2c1NC(=O)C21NC(C(C)O)[C@H]2C(=O)N(Cc3ccc4c(c3)OCO4)C(=O)[C@H]21 (stereo partly drawn) | -9 | 1.39 |
| Cc1ccc(-n2cnnc2)c(C(=O)N2CCC3CCC(C2)S3(=O)=O)c1 (stereo not drawn) | -7 | 1.08 |
| CC(=O)Nc1nc(-c2ccccc2)[n+](-c2ccccc2)s1 | 12 | -1.55 |
| C[C@@H](CCc1ccccc1)NC(=O)NCc1nnc2c(Cl)cc(C(F)(F)F)cn12 | -5 | 0.55 |

| Compound | % Inhibition [%] | Z score |
| --- | --- | --- |
| CN1C[C@@H](NC(=O)c2ccccc2OCc2ccccc2)CC1=O | -4 | 0.84 |
| Cc1noc([C@H]2CN(CCc3ccccc3)CC23CCCC3)n1 | -2 | 0.3 |
| CC(C)N1CCC(C(=O)N[C@@H](C)Cn2ccc3ccccc32)CC1 | -5 | 0.97 |
| O=C(Cn1cc(C(F)(F)F)ccc1=O)Nc1ccc(N2CCOCC2)cc1 | -14 | 2.86 |
| COc1ccc([C@H]2C(=O)N(C3CCCCC3)CC(=O)N2C2CCCCCCC2)cc1 | -4 | 0.77 |
| Cc1nc(CN(C)Cc2nccs2)[nH]c1C | -9 | 1.52 |
| CS(=O)(=O)c1ccc([C@H]2CC(=O)Nc3c2cnn3C2CCCC2)cc1 | -1 | 0.15 |
| Cn1cc(NC(=O)Nc2cccc(F)c2)cc(Cl)c1=O | -1 | 0.2 |
| O=C(CCn1c2c(c3ccccc31)CCCC2)N1CCC(Cc2nc(C3CCOCC3)no2)CC1 | 9 | -1.12 |
| Nc1nc2c(c(N3CCN(C(=O)c4cnon4)C[C@H](O)C3)n1)CCC2 | -9 | 1.69 |
| O=C(CCc1nc(C2CCCC2)no1)Nc1cncnc1N1CCCC1 | -3 | 0.48 |
| Cc1ccc(-c2ncc(CN(C)[C@@H](C)c3cccnc3)s2)o1 | -8 | 1.29 |
| CCCC[C@@H](COC)NC(=O)C(=O)Nc1cccc(Cl)c1 | -12 | 1.27 |
| CC(C)(CC(F)F)C(=O)NCc1cccc(CN2CCCC2=O)c1 | 20 | -2.48 |
| Clc1ccc(O[C@H]2CCCN(Cc3cnc4cnccn34)C2)nc1 | 3 | -0.47 |
| Cc1cc(CN(C)Cc2c[nH]c(C)n2)ccn1 | 4 | -0.55 |
| CC1=CCN(C(=O)N[C@@H](C)c2csc(C)n2)CC1 | -7 | 1.41 |
| C[C@H](NC(=O)N(Cc1ccoc1)C1CC1)c1cncc(F)c1 | -4 | 0.5 |
| Cc1ccc(CNCCOc2ccc3c(c2)OCO3)nc1 | -7 | 0.62 |
| COc1cccc(Nc2nnc(CC(=O)NCc3ccc(C)cc3)s2)c1 | -16 | 1.89 |
| C[C@H](NC(=O)NC1(C(N)=O)CCCC1)c1cn2ccsc2n1 | -6 | 1.14 |
